Among all 310,000 compounds or so, about 14,000 (4.5%) showed an effect of 50% or more. The effect is printed as a negative number. The list shows a part of the results.
target: human ether-à-go-go-related gene (hERG) potassium channel (human, UniProt Q12809); experiment: primary screen, population patch clamp on CHO cells stably expressing hERG
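Also: peak tail current of the secondary pulse compared with the same well before compound.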

Chain of human ether-à-go-go-related gene (hERG) potassium channel (Q12809 whole entry, looked up): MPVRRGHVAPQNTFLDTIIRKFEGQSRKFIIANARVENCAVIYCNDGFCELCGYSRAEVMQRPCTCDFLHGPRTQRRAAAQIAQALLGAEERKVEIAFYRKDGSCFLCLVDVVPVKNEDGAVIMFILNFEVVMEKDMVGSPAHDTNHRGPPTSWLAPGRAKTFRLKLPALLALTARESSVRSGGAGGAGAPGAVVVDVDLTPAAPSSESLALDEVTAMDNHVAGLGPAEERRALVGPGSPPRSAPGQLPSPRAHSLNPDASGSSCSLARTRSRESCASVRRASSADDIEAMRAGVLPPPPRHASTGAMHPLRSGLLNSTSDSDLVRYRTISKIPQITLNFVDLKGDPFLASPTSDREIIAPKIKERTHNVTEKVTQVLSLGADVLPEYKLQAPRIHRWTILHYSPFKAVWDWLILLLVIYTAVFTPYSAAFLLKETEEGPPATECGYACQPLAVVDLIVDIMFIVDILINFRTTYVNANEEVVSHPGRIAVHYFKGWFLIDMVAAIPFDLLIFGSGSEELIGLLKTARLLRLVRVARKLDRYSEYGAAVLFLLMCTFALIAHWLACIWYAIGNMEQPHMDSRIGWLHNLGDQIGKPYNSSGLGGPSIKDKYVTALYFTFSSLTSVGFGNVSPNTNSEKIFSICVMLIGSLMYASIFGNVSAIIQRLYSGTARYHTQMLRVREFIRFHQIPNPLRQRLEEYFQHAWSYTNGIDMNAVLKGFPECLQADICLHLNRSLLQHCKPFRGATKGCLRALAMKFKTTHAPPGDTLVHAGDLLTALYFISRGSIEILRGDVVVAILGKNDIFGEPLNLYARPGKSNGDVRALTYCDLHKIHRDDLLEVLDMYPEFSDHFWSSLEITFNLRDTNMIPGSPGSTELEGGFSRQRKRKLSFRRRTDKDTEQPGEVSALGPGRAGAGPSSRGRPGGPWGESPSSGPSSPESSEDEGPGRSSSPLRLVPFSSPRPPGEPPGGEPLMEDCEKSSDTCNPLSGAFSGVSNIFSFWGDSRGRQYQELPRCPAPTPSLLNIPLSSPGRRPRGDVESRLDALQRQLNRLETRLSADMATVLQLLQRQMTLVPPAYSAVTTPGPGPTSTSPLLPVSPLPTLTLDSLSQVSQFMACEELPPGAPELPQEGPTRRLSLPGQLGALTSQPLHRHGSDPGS

Going from `C/C(=N/OC(=O)c1ccccc1Br)c1ccc(C)cc1` to `CCCCCN(C(=O)NC(=O)Nc1ccc(C)cc1)S(=O)(=O)c1ccccc1`, the “hERG current change (%, negative = inhibition) at 10uM” value falls from 16.1% to 5.56%.

First: COc1ccc2[nH]c(=O)c(CN(Cc3ccc(C)cc3)Cc3nnnn3CC3CCCO3)cc2c1 (stereo not shown)
Second: CCOc1ccc(-n2c(SCC(N)=O)nc3c([nH]c4ccccc43)c2=O)cc1
The “hERG current change (%, negative = inhibition) at 10uM” value of the first is lower: -10.2% for the first, 1.03% for the second.

Going from `Cc1nc2sccn2c(=O)c1S(=O)(=O)N1CCN(c2cccc(Cl)c2)CC1` to `O=[N+]([O-])c1cc(CN2CCN(c3cccc(C(F)(F)F)c3)CC2)c2cccnc2c1O`, the “hERG current change (%, negative = inhibition) at 10uM” value rises from -0.478% to 0.813%.

First: COc1ccc(OCCOCCOc2ccc(C)cc2[N+](=O)[O-])cc1
Second: COc1ccc(CNC(=O)CSc2nc3ccccc3n2C(C)=O)cc1
The “hERG current change (%, negative = inhibition) at 10uM” value of the first is lower: -22.4% for the first, 1.61% for the second.

Going from `CCC1CCCCN1C(=O)COc1cccc2c1CCN(C)C2=O` (stereo not shown) to `O=C(Cn1c(=O)n(CC2CS2)c2ccccc21)N1CCCCCC1` (stereo not shown), the “hERG current change (%, negative = inhibition) at 10uM” value rises from 1.34% to 14.1%.

Compared with `CCCCC(=O)Nc1nnc(-c2ccc(OC)cc2)s1`, `COc1ccc(CCNC(=O)CCCC(=O)n2nc(C)c3ccccc32)cc1OC` is higher in “hERG current change (%, negative = inhibition) at 10uM” value: -2.51% for the first, -1.14% for the second.

Compared with `C=CCN1CCN(C(=O)c2cc3c(s2)CCCC3)CC1`, `CC(=O)N1CCN(c2nc(CC(C)C)c3c(c2C#N)CCC3)CC1` is higher in “hERG current change (%, negative = inhibition) at 10uM” value: -19.3% for the first, -9.82% for the second.

Compared with `OC(CNCc1cccs1)c1ccccc1` (stereo not shown), `COc1ccc(-c2ccccc2)cc1NC(=O)c1cccs1` is higher in “hERG current change (%, negative = inhibition) at 10uM” value: 7.94% for the first, 8.59% for the second.

Compared with `Cn1c(SCC(=O)N2CCCc3ccccc32)nnc1-c1ccco1`, `NC(=O)c1ccc(NC(=O)CSc2nc3ccccc3c(=O)n2CCCN2CCOCC2)cc1` is lower in “hERG current change (%, negative = inhibition) at 10uM” value: -1.95% for the first, -5.06% for the second.

Going from `COCCn1c(C)cc(C(=O)CSc2cc(C)c3ccccc3n2)c1C` to `Cc1ccccc1CSCC(=O)c1c(N)n(CC(C)C)c(=O)n(C)c1=O`, the “hERG current change (%, negative = inhibition) at 10uM” value rises from 4.15% to 7.95%.

Compared with `CCCCn1c(N)c(N(CCC(C)C)C(=O)c2sc3nc4n(c(=O)c3c2C)CCC4)c(=O)[nH]c1=O`, `CCCCC1=CC2=C(c3ccco3)C(=O)C(C)(OC(=O)c3ccc(OC)cc3)C(=O)C2=CN1C(CO)CO` (stereo not shown) is lower in “hERG current change (%, negative = inhibition) at 10uM” value: 15.8% for the first, 7.79% for the second.

Going from `Cc1ccc2nc(NCC(=O)O)nc(-c3ccccc3)c2c1` to `Cc1cc(SCC(=O)Nc2ccc(O)cc2)n2nc(C)c(-c3ccccc3)c2n1`, the “hERG current change (%, negative = inhibition) at 10uM” value rises from 4.48% to 11.9%.

Going from `CS(=O)(=O)NCC(c1cccnc1)N1CCN(c2ccccc2F)CC1` (stereo not shown) to `CCOC(=O)NN1C(=O)c2ccccc2NC1c1cccnc1` (stereo not shown), the “hERG current change (%, negative = inhibition) at 10uM” value rises from -9.77% to 0.824%.

First: CCOC(=O)CSc1cccc2cccnc12
Second: CC(=O)n1nc(-c2cccnc2)nc1N
The “hERG current change (%, negative = inhibition) at 10uM” value of the first is higher: 2.32% for the first, -7.75% for the second.

First: CC/C(=N/Nc1ccccc1)c1cnnc(-c2ccccc2)n1
Second: Cc1nn(-c2ccccc2)c(N)c1C1(O)C(=O)N(C(C)C)c2ccccc21 (stereo not shown)
The “hERG current change (%, negative = inhibition) at 10uM” value of the first is higher: 1.98% for the first, -0.706% for the second.

Compared with `CC(C)(C)CN1C(N)=NC[C@@H]1Cc1ccc(O)cc1`, `O=C1NCCCN1Cc1ccc(Cl)cc1` is lower in “hERG current change (%, negative = inhibition) at 10uM” value: 10.1% for the first, 1.79% for the second.

Compared with `O=C(CSc1nnnn1-c1ccc(O)cc1)c1cc2ccccc2o1`, `S=c1[nH]nc(-c2ccc(Cl)cc2Cl)n1-c1ccccc1` is higher in “hERG current change (%, negative = inhibition) at 10uM” value: -9.49% for the first, 17.7% for the second.

First: Cc1ccccc1C(=O)Nc1cc(C(F)(F)F)ccc1-n1cncn1
Second: O=C(Nc1ccc(OC(F)(F)F)cc1)c1ccc2nc[nH]c2c1
The “hERG current change (%, negative = inhibition) at 10uM” value of the first is lower: -3.12% for the first, 0.611% for the second.

Going from `C=CCNC(=S)NCCO` to `O=[N+]([O-])c1ccc(Cl)c(/C=N/NC(=S)Nc2ccccc2)c1`, the “hERG current change (%, negative = inhibition) at 10uM” value rises from 18.1% to 21.2%.

Compared with `CC1CCCN(CC(O)COCc2ccc3c(c2)OCO3)C1.Cl` (stereo not shown), `CCC(Oc1ccccc1)C(=O)N1CCC(C(N)=O)CC1` (stereo not shown) is higher in “hERG current change (%, negative = inhibition) at 10uM” value: -6.78% for the first, 15.8% for the second.

First: CCC(C)N(C(=O)Cn1c(=O)cnc2ccccc21)C1CCS(=O)(=O)C1 (stereo not shown)
Second: CCC(C)c1nc2c(c(N3CCC3=O)c1-c1ccccc1)CCCC2 (stereo not shown)
The “hERG current change (%, negative = inhibition) at 10uM” value of the first is higher: -14.9% for the first, -26.8% for the second.

Compared with `COc1ccc2oc(N)c(C=O)c(=O)c2c1`, `COc1ccc(-c2[nH]ncc2CN(C)C(C)c2cccs2)c(F)c1` (stereo not shown) is lower in “hERG current change (%, negative = inhibition) at 10uM” value: 8.6% for the first, -5.76% for the second.

First: CC(/C=C1\SC(=S)N(CCC(=O)Nc2nc(C)cs2)C1=O)=C\c1ccccc1
Second: Cn1c(=O)c(C(=O)c2ccc(S(C)(=O)=O)c(Cl)c2Cl)c(O)c2ccccc21
The “hERG current change (%, negative = inhibition) at 10uM” value of the first is higher: 20.9% for the first, -12.6% for the second.

— paper PMC4336329 (PLoS ONE, 2015)
